Results published in PMC4336329 (PLoS ONE, 2015).
About 14,000 (4.5%) of roughly 310,000 compounds showed an effect of 50% or more. The effect is printed as a negative number. The list shows a part of the results.
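Also: peak tail current of the secondary pulse compared with the same well before compound.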

Each molecule was assayed against human ether-à-go-go-related gene (hERG) potassium channel (human, UniProt Q12809) (assay: primary screen, population patch clamp on CHO cells stably expressing hERG).
Chain of human ether-à-go-go-related gene (hERG) potassium channel (Q12809 whole entry, looked up): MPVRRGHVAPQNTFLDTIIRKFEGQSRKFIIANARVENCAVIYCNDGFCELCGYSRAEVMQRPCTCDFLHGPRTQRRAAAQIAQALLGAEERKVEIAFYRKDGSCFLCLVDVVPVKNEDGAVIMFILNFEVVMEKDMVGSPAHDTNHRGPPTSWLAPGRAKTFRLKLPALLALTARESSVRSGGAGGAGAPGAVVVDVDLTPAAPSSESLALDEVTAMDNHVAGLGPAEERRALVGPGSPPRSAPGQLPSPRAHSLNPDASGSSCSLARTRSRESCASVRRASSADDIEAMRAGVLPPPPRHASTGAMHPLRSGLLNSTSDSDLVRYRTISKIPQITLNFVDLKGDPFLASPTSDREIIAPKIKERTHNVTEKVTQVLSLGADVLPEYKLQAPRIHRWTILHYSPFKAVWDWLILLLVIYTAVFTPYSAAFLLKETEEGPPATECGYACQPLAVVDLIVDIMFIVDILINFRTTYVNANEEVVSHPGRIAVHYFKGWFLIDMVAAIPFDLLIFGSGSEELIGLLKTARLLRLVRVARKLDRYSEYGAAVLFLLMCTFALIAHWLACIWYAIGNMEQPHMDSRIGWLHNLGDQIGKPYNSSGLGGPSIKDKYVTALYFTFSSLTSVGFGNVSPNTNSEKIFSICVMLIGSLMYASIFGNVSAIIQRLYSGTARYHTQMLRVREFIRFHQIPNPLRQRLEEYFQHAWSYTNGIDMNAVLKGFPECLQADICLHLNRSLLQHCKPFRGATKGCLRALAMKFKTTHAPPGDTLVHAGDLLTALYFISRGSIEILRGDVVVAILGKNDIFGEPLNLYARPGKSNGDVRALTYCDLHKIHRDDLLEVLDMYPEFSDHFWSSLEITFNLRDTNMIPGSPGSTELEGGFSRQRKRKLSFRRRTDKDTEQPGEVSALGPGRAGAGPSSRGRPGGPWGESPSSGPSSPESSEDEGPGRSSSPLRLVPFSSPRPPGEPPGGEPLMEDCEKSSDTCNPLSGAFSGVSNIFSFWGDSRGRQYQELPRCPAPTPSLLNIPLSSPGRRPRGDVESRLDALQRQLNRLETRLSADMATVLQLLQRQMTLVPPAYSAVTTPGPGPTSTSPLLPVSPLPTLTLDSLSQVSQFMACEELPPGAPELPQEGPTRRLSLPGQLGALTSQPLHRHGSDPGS
O=C(Cc1ccccc1)N1CCC(c2nc(-c3ccc(F)cc3)no2)CC1 was tested, and the “hERG current change (%, negative = inhibition) at 10uM” value was -50.6%.
In the case of O=C1CC(=O)Nc2cc(S(=O)(=O)Nc3cccc(C(F)(F)F)c3)ccc2N1, the “hERG current change (%, negative = inhibition) at 10uM” value is reported as 5.79%.
In the case of CCOc1ccc(-n2c(O)c(/C=N/c3ccnn3Cc3ccncc3)c3ccccc3c2=O)cc1, the “hERG current change (%, negative = inhibition) at 10uM” value is reported as 22.8%.
For CCCSc1nc(N)cc(=O)[nH]1, the “hERG current change (%, negative = inhibition) at 10uM” value was 4.03%.
With CCN1/C(=C2\OC(=S)N(C)C2=O)C=Cc2ccccc21 the “hERG current change (%, negative = inhibition) at 10uM” value was 10.3%.
For O=C(CCNC(=O)c1ccccc1Cl)NCCC1=CCCCC1, the “hERG current change (%, negative = inhibition) at 10uM” value was 13.4%.
In the case of CCOC(=O)C1=C(C)NC(C)=C(C(=O)OCC)C1C(=O)OCC(=O)N1CCc2ccccc21, the “hERG current change (%, negative = inhibition) at 10uM” value is reported as -1.82%.
In the case of C[C@@H](C(=O)NCCc1ccc(F)cc1)N1C(=O)N2CCc3c([nH]c4ccccc34)[C@@]2(C)C1=O, the “hERG current change (%, negative = inhibition) at 10uM” value is reported as -18.9%.
In the case of CC1CC(C#N)N(N(C)C)C1=C(C#N)C#N (centres unmarked), the “hERG current change (%, negative = inhibition) at 10uM” value is reported as 11.3%.
With CCN1C(=O)/C(=C\c2ccco2)C(C(=O)OC)=C1C the “hERG current change (%, negative = inhibition) at 10uM” value was 10.4%.
For OC1CCCN(Cc2c3ccccc3cc3ccccc23)C1 (centres unmarked), the “hERG current change (%, negative = inhibition) at 10uM” value was -1.54%.
With CCOc1cccc(C(=O)Nc2ccccc2N2CCN(C(=O)C(C)C)CC2)c1 the “hERG current change (%, negative = inhibition) at 10uM” value was -70%.
With CC1CCCC/C1=N\NC(=S)Nc1ccccc1 (centres unmarked) the “hERG current change (%, negative = inhibition) at 10uM” value was -14.7%.
Cc1cc(C)cc(N(CCC#N)C(=O)COC(=O)c2ccc(OCc3c(C)noc3C)cc2)c1 was tested, and the “hERG current change (%, negative = inhibition) at 10uM” value was -7.01%.
For O=C(N/N=C\c1ccc(F)cc1)c1ccc(F)cc1, the “hERG current change (%, negative = inhibition) at 10uM” value was 6.28%.
For CCc1nnc(SCC(=O)Nc2ccc(NC(C)=O)cc2)n1-n1cccc1, the “hERG current change (%, negative = inhibition) at 10uM” value was 15.8%.
Cc1cccc(-c2noc(CN(C)S(=O)(=O)c3cc(Cl)ccc3Cl)n2)c1 was tested, and the “hERG current change (%, negative = inhibition) at 10uM” value was -2.87%.
In the case of CC(C)NC(=O)COc1ccc(S(=O)(=O)N2CCOCC2)cc1, the “hERG current change (%, negative = inhibition) at 10uM” value is reported as 14.6%.
For O=C(C1CCN(S(=O)(=O)c2ccc3ccccc3c2)CC1)N1CCN(c2ncccn2)CC1, the “hERG current change (%, negative = inhibition) at 10uM” value was -29.2%.
For O=C(COc1cc(O)c2c(=O)cc(-c3ccccc3)oc2c1)c1ccccc1, the “hERG current change (%, negative = inhibition) at 10uM” value was 10.3%.
In the case of CC(C)Cn1c(-c2csc3ccccc23)n[nH]c1=S, the “hERG current change (%, negative = inhibition) at 10uM” value is reported as 2.01%.
In the case of CCOC(=O)CN(C(=O)CSc1nnc(CNc2ccc(F)cc2)n1CC)c1ccc(F)cc1, the “hERG current change (%, negative = inhibition) at 10uM” value is reported as -42.9%.
With CCOC(=O)CSc1nnc2c(n1)C1(C)CCC2C1(C)C (centres unmarked) the “hERG current change (%, negative = inhibition) at 10uM” value was -19.4%.
In the case of O=C(O)CCC(=O)NC(c1ccccc1)c1ccccc1, the “hERG current change (%, negative = inhibition) at 10uM” value is reported as 20.3%.
With Fc1ccc(COc2cccc(-c3n[nH]c(=S)o3)c2)cc1 the “hERG current change (%, negative = inhibition) at 10uM” value was 5.69%.
CN(C)S(=O)(=O)c1ccc2c(c1)c(=O)c(C(=O)N1CCOCC1)cn2C was tested, and the “hERG current change (%, negative = inhibition) at 10uM” value was 14.8%.
COc1ccc(C)c(S(=O)(=O)Nc2ccc(OCC(=O)O)cc2)c1 was tested, and the “hERG current change (%, negative = inhibition) at 10uM” value was 24.6%.
For CCOC(=O)N1CCC(NC(=O)C2CCCN(S(=O)(=O)c3ccc4c(c3)oc(=O)n4C)C2)CC1 (centres unmarked), the “hERG current change (%, negative = inhibition) at 10uM” value was 5.14%.
For O=C(COc1ccccc1[N+](=O)[O-])Nc1ccc(N2CCN(C(=O)c3cccs3)CC2)cc1, the “hERG current change (%, negative = inhibition) at 10uM” value was -15.1%.
In the case of COc1ccc(S(=O)(=O)N(c2onc(C)c2Cl)S(=O)(=O)c2ccc(OC)cc2)cc1, the “hERG current change (%, negative = inhibition) at 10uM” value is reported as 11.9%.
In the case of CCCCn1c(N)c(N(CC(C)C)C(=O)C(C)SCc2nc3sc(C)c(C)c3c(=O)[nH]2)c(=O)[nH]c1=O (centres unmarked), the “hERG current change (%, negative = inhibition) at 10uM” value is reported as 18.5%.
For COc1cccc(N2C(=O)Nc3ccc(Br)cc3C2(O)C(=O)NCCCOC(C)C)c1 (centres unmarked), the “hERG current change (%, negative = inhibition) at 10uM” value was 19.3%.
With O=C(Nc1ncccn1)c1cccs1 the “hERG current change (%, negative = inhibition) at 10uM” value was 10.8%.
With CCCC(=O)Nc1ccc(NCc2ccc(C)s2)cc1 the “hERG current change (%, negative = inhibition) at 10uM” value was 5.96%.
For CCc1ccc(NC(=S)Nn2cnnc2)cc1, the “hERG current change (%, negative = inhibition) at 10uM” value was 13.9%.
With Cc1cccc(NC(=S)N(CCc2ccncc2)C(C)C)c1C the “hERG current change (%, negative = inhibition) at 10uM” value was -8.61%.
For COc1ccccc1CNC(=O)CCNS(=O)(=O)c1cccc2nonc12, the “hERG current change (%, negative = inhibition) at 10uM” value was 4.83%.
CCOC(=O)c1c(NC(=O)CC)sc2c1CCN(Cc1ccccc1)C2.Cl was tested, and the “hERG current change (%, negative = inhibition) at 10uM” value was -14.5%.
For O=C(NCCc1ccccc1)c1ccc(CS(=O)(=O)c2ccc(Br)cc2)o1, the “hERG current change (%, negative = inhibition) at 10uM” value was 10.2%.
With OC(COc1ccc(F)cc1Cl)CN1CCc2ccccc2C1 (centres unmarked) the “hERG current change (%, negative = inhibition) at 10uM” value was -41.7%.
With NC(=O)COC(=O)CC(NC(N)=O)c1ccc(Cl)cc1 (centres unmarked) the “hERG current change (%, negative = inhibition) at 10uM” value was 17.6%.
CCN(C(=O)CN1C(=O)S/C(=C\c2cccc(OC)c2)C1=O)C1CCS(=O)(=O)C1 (centres unmarked) was tested, and the “hERG current change (%, negative = inhibition) at 10uM” value was -17%.
With O=C(NCc1cccnc1)Nc1ccc(Cl)cc1Cl the “hERG current change (%, negative = inhibition) at 10uM” value was -7.68%.
For Cc1c(C(=O)Nc2ccccc2Cl)oc2ccc(S(=O)(=O)N3CCC4(CC3)OCCO4)cc12, the “hERG current change (%, negative = inhibition) at 10uM” value was 2.81%.
